Article PMC10188589
These are yes or no findings as the source states them, for the method shown. Binding seen in cells or lysates may run through a third protein. Tags and fused reporters may be left off the sequences shown.

Biological target: T1, HA-cGAS (human), Q8N884
T1 chain: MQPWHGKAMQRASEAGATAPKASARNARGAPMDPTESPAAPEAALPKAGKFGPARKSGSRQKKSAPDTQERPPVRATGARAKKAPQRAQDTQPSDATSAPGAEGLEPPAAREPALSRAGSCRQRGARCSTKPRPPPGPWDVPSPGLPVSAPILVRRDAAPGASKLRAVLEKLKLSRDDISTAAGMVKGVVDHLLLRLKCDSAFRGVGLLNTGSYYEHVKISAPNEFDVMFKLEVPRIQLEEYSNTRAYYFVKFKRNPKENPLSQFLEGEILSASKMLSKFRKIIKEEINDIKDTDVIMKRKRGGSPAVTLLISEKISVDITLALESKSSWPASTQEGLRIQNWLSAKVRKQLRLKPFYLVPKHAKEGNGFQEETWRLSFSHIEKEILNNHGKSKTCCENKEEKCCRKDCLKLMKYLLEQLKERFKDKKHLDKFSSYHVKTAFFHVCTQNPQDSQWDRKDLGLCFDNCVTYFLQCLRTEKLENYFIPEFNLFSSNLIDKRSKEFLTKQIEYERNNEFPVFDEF
Assay: co-IP; HA immunoprecipitation from lysates of HEK293T cells co-expressing HA-cGAS and GFP-PRMT constructs; EBC lysis buffer (50 mM Tris pH 7.5, 120 mM NaCl, 0.5% NP-40), 4 °C, four washes with NETN buffer; immunoblot
Settings: remark: other sources report otherwise

B1: GFP-PRMT3, O60678 1-531 (enzyme)
chain: MCSLASGATGGRGAVENEEDLPELSDSGDEAAWEDEDDADLPHGKQQTPCLFCNRLFTSAEETFSHCKSEHQFNIDSMVHKHGLEFYGYIKLINFIRLKNPTVEYMNSIYNPVPWEKEEYLKPVLEDDLLLQFDVEDLYEPVSVPFSYPNGLSENTSVVEKLKHMEARALSAEAALARAREDLQKMKQFAQDFVMHTDVRTCSSSTSVIADLQEDEDGVYFSSYGHYGIHEEMLKDKIRTESYRDFIYQNPHIFKDKVVLDVGCGTGILSMFAAKAGAKKVLGVDQSEILYQAMDIIRLNKLEDTITLIKGKIEEVHLPVEKVDVIISEWMGYFLLFESMLDSVLYAKNKYLAKGGSVYPDICTISLVAVSDVNKHADRIAFWDDVYGFKMSCMKKAVIPEAVVEVLDPKTLISEPCGIKHIDCHTTSISDLEFSSDFTLKITRTSMCTAIAGYFDIYFEKNCHNRVVFSTGPQSTKTHWKQTVFLLEKPFSVKAGEALKGKVTVHKNKKDPRSLTVTLTLNNSTQTYGLQ
With B1 as the binder, how does the binding read?
Its binding is “no binding”.
